“And” between values parts separate entries of the source, which are not always exact repeats. Equal entries are not always repeated.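 Assay format: 96-well plates, 48-hour exposure. At the GI50, growth is halved. TGI is the concentration that stops growth completely.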 Square brackets hold non-standard residues; d marks the D form. Peptide text beside a SMILES is read from it. * marks the point of attachment. Phe(4-NO2) = N[CH](Cc1ccc([N+](=O)[O-])cc1)C(=O)O; Boc = CC(C)(C)OC(=O)*
Tested on: NCI-H322M lung
Test: NCI tumour cell line growth inhibition, 48 h

| Structure (SMILES) | TGI | GI50 |
| --- | --- | --- |
| N#Cc1cccc(/C=N/N=C(\N)NO)c1 | > 100 µM | – |
| COc1cc(Nc2ncc(F)c(Nc3ccc4c(n3)N(COP(=O)(O)O)C(=O)C(C)(C)O4)n2)cc(OC)c1OC | 9.32 µM and > 10 µM | 2 µM and 2.22 µM |
| OCC#Cc1ccccc1C#CCCCCCC#Cc1ccccc1C#CCO | 40.2 µM | 17.8 µM |
| CC(C)NC(=O)CN1CCN(c2c(O)c3c(c(O)c2Cl)C(=O)C=CC3=O)CC1 | 12.1 µM | – |
| CCOC(=O)C(SCCO)C(C(=O)OCC)n1ccc(=O)[nH]c1=O (centres undefined) | > 100 µM | – |
| CC(C)=CC1=C2C3=C(C(=O)C4(O)Oc5c(C)c6c7c(c5OC24C)[C@@H](C)CC[C@@H]7[C@@H](C)C[C@H]6C=C(C)C)C(C)CCC3C(C)C1 (some centres undefined) | > 100 µM | 88.8 µM |
| CC(C)(c1ccccc1)c1ccc(OC#N)cc1 | > 100 µM | – |
| O=C1CSC(c2cccc([N+](=O)[O-])c2)N1c1ccc(-n2c(-c3ccccc3)nc3ccccc3c2=O)cc1 (centres undefined) | > 100 µM | – |
| O=C(O)CCc1nn2c(nc1=O)sc1ccc3ccccc3c12 | > 100 µM | – |
| C=C1C(=O)O[C@H]2[C@H]1CC/C(Cn1cc(-c3ccccc3C(F)(F)F)nn1)=C\CC[C@@]1(C)O[C@@H]21 | 23.2 µM | 10.8 µM |
| C=CCC1C(=O)CC2(C)CC(=O)C(CC=C)C12C (centres undefined) | > 100 µM | – |
| OCCNCNc1nc(NCNCCO)nc(N(CNCCO)CNCCO)n1 | > 81.1 µM | – |
| Cc1ccnc(NC(NC(=O)c2ccccc2)(C(F)(F)F)C(F)(F)F)c1 | > 100 µM | – |
| COC(=O)C1OC(O[C@H]2CC[C@]3(C)[C@H]4CC=C5[C@@H]6CC(C)(C)CC[C@]6(C(=O)OC6OCC(O)C(O)C6OC6OC(C)C(OC7OCC(O)C(O)C7O)C(O)C6O)CC[C@@]5(C)[C@]4(C)CC[C@H]3C2(C)C)C(O)C(O)C1O (some centres undefined) | 30.3 µM and 30.9 µM | – |
| CCOC(=O)c1c(N2CCOCC2)[nH]c(=O)c(C(c2ccco2)c2c(O)c(C(=O)OCC)c(N3CCOCC3)[nH]c2=O)c1O | > 100 µM | – |
| Cc1ccc(S(=O)(=O)NNCNC(=O)c2ccccc2)cc1 | > 100 µM | – |
| CC1=C(C)Cc2c(O)ccc(O)c2C1 | > 100 µM | – |
| CN(C)CC/[N+]([O-])=C(/c1ccccc1)C12CC3CC(CC(C3)C1)C2 | 30.4 µM | – |
| CN(C)c1ccc(/C=C/c2cc[n+](C)c(/C=C/c3ccc(N(C)C)cc3)c2)cc1 | 11.4 µM | 1.85 µM |
| CCOC(=O)c1c2c(n3ccccc13)C(=O)c1ncccc1C2=O | 5.55 µM | 0.0465 µM |
| COc1ccc(-c2ccc(-c3ccc(C(=N)N)o3)o2)cc1 | 7.15 µM | 2.26 µM |
| CC(=O)Nc1c(C)cc2c(nc3n2CCC3O)c1[N+](=O)[O-] (centres undefined) | > 100 µM | – |
| CO/N=C(\C)c1cccc(Nc2c3ccccc3nc3occc23)c1 | 55.7 µM | – |

| Structure (SMILES) | TGI | GI50 |
| --- | --- | --- |
| Cc1ccc(Cl)cc1NC(=O)c1sc2nc3c(cc2c1N)C(=O)CCC3 | > 100 µM | 16 µM |
| CSc1nc(SC)c2c(CO)c(Br)n(Cc3ccccc3)c2n1 | 45.7 µM | – |
| CN(C)c1nc(Cl)c2c(-c3ccccc3)c(-c3ccccc3)oc2n1 | > 100 µM | – |
| Cc1cccc(NC(=O)c2cccc([N+](=O)[O-])c2O)c1C | > 90.6 µM | – |
| CCC(C#N)NCc1cccc(CNC(C#N)CC)c1 (centres undefined) | > 100 µM | – |
| Cc1ccc(S(=O)(=O)N2CCCSCC2)cc1 | > 100 µM | – |
| O=[N+]([O-])c1cc(-c2nc(-c3ccccc3)c(-c3ccccc3)[nH]2)c(O)c([N+](=O)[O-])c1 | 52.4 µM | – |
| C=CCc1cccc2cc(C(=O)Nc3ccccn3)c(=N)oc12 | > 100 µM | – |
| CCN(CC)c1ccc(N=Nc2ccc(-c3nc4ccc[n+](C)c4o3)cc2)cc1 | 30.5 µM | – |
| COC(=O)[C@@H](C)C[C@H](Cc1ccccc1)NC(=O)c1csc([C@@H](C[C@H](C(C)C)N(C)C(=O)[C@@H](NC(=O)[C@H]2CCCCN2C)C2CC2)OC(C)=O)n1 | > 16.5 µM | 0.00178 µM and 0.00165 µM |
| CC(C(O)c1ccccc1)C(O)(C(F)(F)F)C(F)(F)F (centres undefined) | > 100 µM | – |
| CCOc1ccc2nc(NC(=O)C(=O)C(c3cnc4ccccc4n3)[N+](=O)[O-])sc2c1 (centres undefined) | > 100 µM | – |
| CNC(=O)CCC(NC(=O)OC(C)(C)C)C(=O)NC(Cc1ccc([N+](=O)[O-])cc1)C(=O)NCC(=O)NC (centres undefined) (Boc-Glu(NHMe)-[Phe(4-NO2)]-Gly-NHMe; configuration not given here) | > 100 µM | – |
| CCCCCCCCCCCCCCCCCCN(C)CC(COP(=O)([O-])OCC[N+](C)(C)C)OC (centres undefined) | 47.4 µM | – |
| Cc1cn(-c2cc(NC(=O)c3ccc(C)c(Nc4nccc(-c5cccnc5)n4)c3)cc(C(F)(F)F)c2)cn1 | > 10 µM and 28.9 µM | > 10 µM and 8 µM |
| COI1NC(=O)c2ccccc21 | > 100 µM | – |
| CCOC(=O)CCC(NC(=O)c1ccc(OCc2ccc3nc(-c4ccccc4)c(Cl)nc3c2)cc1)C(=O)OCC (centres undefined) | > 100 µM | – |
| COc1cccc(/C=N/C(/N=C/c2cccc(OC)c2O)c2cccc(OC)c2O)c1O | 6.11 µM | – |
| COc1ccc2c(c1)C(=O)c1c-2n(CCCI)c(=O)c2cc([N+](=O)[O-])ccc12 | 50 µM and > 100 µM | 1.24 µM and 2.76 µM |
| COC(=O)C1(C)C=CC(=O)C2(C)C1C(O)C1OC3CC(c4ccoc4)C(C)=C3C1(C)C2CC(=O)O (centres undefined) | > 100 µM | – |
| COC(=O)C(CCSC)NC(=O)Cc1ccc(C(=O)c2ccccc2)cc1 (centres undefined) | > 100 µM | – |
| C=C1C2C[C@@H]3O[C@H]4C[C@H]5O[C@@]6(C[C@@H]7O[C@]8(C[C@H](C)[C@@H]9O[C@@H]%10CC(CO)O[C@@H]%10C[C@@H]9O8)C[C@H](C)[C@@H]7O6)C[C@H]5O[C@H]4[C@H](C)[C@H]3OC(=O)C[C@H]3CC[C@@H]4OC5[C@H]6O[C@]7(CC[C@H]8CC(=C)[C@H](CC[C@@H](C[C@H]1C)O2)O8)CC6O[C@@H]5[C@@H](O7)[C@H]4O3 (some centres undefined) | < 0.0001 µM | – |
| NC(=S)N/N=C\c1nccc2ccccc12 | > 49 µM | – |

| Structure (SMILES) | TGI | GI50 |
| --- | --- | --- |
| C#CCOc1cccc(Nc2ncnc3cc(NC(=O)CCl)ccc23)c1 | 26 µM | 13.3 µM |
| COc1cc(-c2nc(SCCC(C)C)nc(Nc3ccc(S(N)(=O)=O)cc3)c2C#N)cc(OC)c1OC | > 100 µM | 4.02 µM |
| Cc1cnc(C(=O)Nc2nc3ccc(S(=O)(=O)Nc4ccc(C5(C(F)(F)F)CC5)cc4)cc3[nH]2)cn1 | 9.78 µM | 0.582 µM |
| COc1cc2c(cc1OC)C13CCN4CC5CCOC6CC(=O)N2C1C6C5CC43 (centres undefined) | > 100 µM | – |
| CCCC(=O)OC1C(CO)OC(n2cc(F)c(=O)[nH]c2=O)C1F (centres undefined) | > 100 µM | – |
| CCCCCCCCCCNC(=O)CCC(NC(=O)c1ccc(N(C)Cc2cnc3nc(N)nc(N)c3n2)cc1)C(=O)NCCCCCCCCCC (centres undefined) | > 87.3 µM | – |
| CCOC(=O)NC(Nc1ccc(C(=O)OCC)cc1)(C(F)(F)F)C(F)(F)F | > 100 µM | – |
| O=C1c2ccc(O)c(O)c2C(=O)c2c(O)ccc(O)c21 | 67.7 µM | – |
| Oc1ccc(-c2nc3ccc(Cl)cc3s2)cc1 | 35 µM | – |
| Cc1nc2c(=O)n(C)ncc2[nH]1 | > 100 µM | – |
| C(=C\c1ccco1)/c1cccc(/C=C/c2ccco2)n1 | > 50 µM | – |
| Cc1cc(N2CCOCC2)cc2[nH]c(-c3c(NC[C@@H](O)c4cccc(Cl)c4)cc[nH]c3=O)nc12 | 13.7 µM | 1.46 µM |
| Cc1cc(C)cc(NC(N)=S)c1 | > 100 µM | – |
| COC(=O)c1ccccc1C1CN=NC12Cc1cc(C)ccc1C2=O (centres undefined) | > 100 µM | – |
| N#Cc1ccc(-n2c3ccccc3c3ccc4c(c32)C(=O)C=CC4=O)cc1 | 28.3 µM | – |
| Cc1ccccc1S(=O)(=O)Nn1cnc2ccc(S(=O)(=O)Nc3ccc(Cl)cc3)cc2c1=O | > 100 µM | – |
| CC1(C)OCC=CCO1 | > 100 µM | – |
| COC(=O)Nc1nc2ccc(Br)cc2[nH]1 | > 100 µM | – |
| COc1ccc2c(c1)CCc1c-2n(CCN2CCCCC2)c2ccc(OC)cc12 | > 100 µM | – |
| CN(C)CCNC(=O)c1ccc(NC(=O)c2nc([N+](=O)[O-])cn2C)cc1 | > 100 µM | – |
| CC(=O)OCC1OC(n2c(-c3ccc(C)cc3)cc(-c3ccccc3)c(C#N)c2=O)C(OC(C)=O)C(OC(C)=O)C1OC(C)=O (centres undefined) | > 100 µM | – |
| CN1C(=O)C2C(C1=O)C1(O)c3ccccc3C2(N)c2ccccc21 (centres undefined) | > 100 µM | – |
| CC(C)CC(NC(=O)OC(C)(C)C)C(=O)Nc1ccc(Nc2nc(F)nc(-c3c4ccccc4cn3C)n2)cc1 (centres undefined) | 40.4 µM | – |

| Structure (SMILES) | TGI | GI50 |
| --- | --- | --- |
| CC1OC(n2cc(F)c(=O)[nH]c2=O)C=CC1=O (centres undefined) | > 100 µM | – |
| Cc1ccc(NC(=O)c2cc(S(=O)(=O)Nc3nc4ncccc4[nH]3)c(SSc3cc(Cl)c(C(=O)Nc4ccc(C)cc4)cc3S(=O)(=O)Nc3nc4ncccc4[nH]3)cc2Cl)cc1 | > 100 µM | – |
| O=C(/C=C/c1ccc(C(F)(F)F)cc1)c1ccc(Nc2nc(NCCO)nc(Nc3ccc(Cl)cc3)n2)cc1 | 53.6 µM | 14.9 µM |
| N[C@H]1CCCC[C@@H]1N1C(=O)c2ccccc2C1(O)c1ccc(Cl)cc1 (some centres undefined) | 27 µM | – |
| CCCSS[C@H]1NC(=O)[C@H]1NC(=O)COc1ccccc1 | > 100 µM | – |
| COc1cc(Cc2nccc3cc(OC)c(OC)cc23)c(N=NN(C)C)cc1OC | 57.4 µM | – |
| Nc1onc2c1Cc1c(noc1N)-c1ccccc1-2 | > 100 µM | – |
| COc1ccc(C(=O)/C=C/c2cc(O)c(O)c(F)c2F)c(OC)c1 | > 100 µM | – |
| Cc1cnc(C(=O)NNc2nc3sc4c(c3c(=O)n2C)C(C)CCC4)cn1 (centres undefined) | 10.1 µM | 0.29 µM |
| O=C(NC12CC3CC(CC(C3)C1)C2)C(=O)c1c[nH]c2ccccc12 | 32.3 µM | – |
| O=C1CC(c2ccccc2)n2cccc21 (centres undefined) | > 100 µM | – |
| CC(=O)OCc1cc2ccccc2nc1C(Br)(Br)Br | 27.3 µM | – |
| Clc1ccc(C(n2cc(Br)cn2)n2cc(Br)cn2)cc1 | 30.2 µM | – |
| C/C(=N\NC(=S)NCCCNC(=S)N/N=C(\C)c1ccccn1)c1ccccn1 | 22.1 µM | – |
| NC(N)=NS(=O)(=O)c1ccc(Nc2c3ccccc3nc3c(C(=O)Nc4ccc(S(N)(=O)=O)cc4)cccc23)cc1 | > 100 µM | – |
| C=C(c1ccccc1)[C@@]1(O)CC[C@@H]1N(CC#N)Cc1ccccc1 | > 100 µM | – |
| Cc1cc2c(C)nn(Cc3ccc(Cl)cc3)c2c(C#N)c1C | > 100 µM | – |
| O=C(OC[C@H]1O[C@H](OC(=O)c2cc(O)c(O)c(OC(=O)c3cc(O)c(O)c(O)c3)c2)[C@H](OC(=O)c2cc(O)c(O)c(OC(=O)c3cc(O)c(O)c(O)c3)c2)[C@@H](OC(=O)c2cc(O)c(O)c(OC(=O)c3cc(O)c(O)c(O)c3)c2)[C@@H]1OC(=O)c1cc(O)c(O)c(OC(=O)c2cc(O)c(O)c(O)c2)c1)c1cc(O)c(O)c(OC(=O)c2cc(O)c(O)c(O)c2)c1 | 20 µM | 1.41 µM |
| COc1cc2c(cc1OCCCC(=O)Nc1ccc3ccc4cccc5ccc1c3c45)N=C[C@@H]1CCCN1C2=O | 0.597 µM | 0.189 µM |
| N#Cc1cnc(N)nc1NCC1(CO)CC(CCc2ccccc2)C1 (centres undefined) | > 100 µM | – |
| O=c1/c(=C/c2ccc(-c3ccc(Cl)cc3Cl)o2)sc2n1[C@@H](c1ccc(Cl)cc1)C=C(c1cc(F)c(Cl)cc1Cl)N=2 | > 100 µM | – |

Reference: PubChem BioAssay (NCI)
